Screen size: about 45,000 compounds; about 200 (0.44%) were called active. Not shown: some 7% with an inconclusive outcome. Calls come from the whole dose curve; as a rule, active = well fitted activation curve with a large enough effect; inconclusive = small, poorly fitted or top-dose-only effect; inactive = no such curve, though single readings can be large or run the other way. The list shows a part of the results.
experiment: qHTS of TDP-43 Inhibitors: NCGC Sytravon Library Screen; conditions: yeast TDP-43 toxicity rescue, BacTiter-Glo growth, 24 h; at 46.1 µM (top of the series); note: 0% is about no effect; nearly all actives have a fitted effect of over 55% in size
Source text: The goal of this project is to identify new chemical probes capable of reversing the toxicity associated with TDP-43 which is associated with frontotemporal lobar degeneration and amyotrophic lateral sclerosis. These compounds will provide a complementary approach to deciphering the tangled mechanisms of toxicity and protection that we have uncovered through genome-wide genetic screens and are beginning to uncover in a large-scale proteomics analysis with mass spectroscopy. To this end, a miniaturized assay was developed to be screened against the Molecular Libraries Small Molecule Repository (MLSMR) to discover TDP-43 inhibitors. Please note that in the set-up this yeast-based assay compounds that inhibit as TDP-43, have a read-out as activators. NIH Chemical Genomics Center [NCGC] NIH Molecular Libraries Probe Centers Network [MLPCN] Assay Submitter (PI): Susan Lindquist, Whitehead Institute/MIT MLPCN Grant: R21 NS060957
Dispense 2.5 microL yeast galactose medium per 1536-well plate, pin compound, dispense 2.5 microL TDP-43 expressing yeast in galactose medium at OD600=0.02 (pregrown in raffinose medium to mid-log phase) per well, incubate for 24 hr at 30 deg C, and cell growth will be measured using 5 microL of Bactiter/Glo reagent to entire plate and read using Luminescence Protocol in ViewLux.

Row | SMILES | growth rescue (activation)
1 | Cc1cc(C=C2C(=O)NC(=S)NC2=O)c(C)n1C1CCCC1 | inactive: 8.65%
2 | CC(Cc1ccccc1)NC(=O)Cc1ccc(N(C)C)cc1 (stereo not given) | inactive: 2.09%
3 | Cc1nn(Cc2ccccc2)c(Cl)c1C(=O)O | inactive: 18%
4 | Cc1ccc(-n2c(O)c(C=Nc3ccc(S(N)(=O)=O)cc3)c(=O)[nH]c2=O)cc1 | inactive: -2.35%
5 | C/C(=N\Nc1ccccc1)c1c(O)[nH]c(=O)[nH]c1=O | inactive: 2.82%
6 | Cc1nc2ccccn2c1P(=S)(N1CCCCC1)N1CCCCC1 | inactive: 18.2%
7 | COc1ccccc1-n1c(-c2ccccc2Br)nc2ccccc2c1=O | inactive: -2.42%
8 | COc1ccc(CCn2c(O)c(C=Nc3ccc(NC(C)=O)cc3)c(=O)[nH]c2=O)cc1OC | inactive: 4.08%
9 | COc1ccc(CN2CC=C(c3ccc(F)cc3)CC2)cc1Br | inactive: -8.36%
10 | COc1cc2c(C(=O)O)c(C)n(C)c2cc1Br | inactive: 14.1%
11 | O=C(O)c1cn(Cc2ccccc2)nc1-c1ccccc1 | inactive: 6.31%
12 | Cc1cccc(-n2c(-c3ccc([N+](=O)[O-])cc3)nc3ccccc3c2=O)c1 | inactive: 9.6%
13 | c1ccc(-c2[nH]c(-c3ccccc3)[n+](CC3CO3)c2-c2ccccc2)cc1 (stereo not given) | inactive: 22.7%
14 | CCCCN(Cc1ccccc1)C1CCN(CCc2ccccc2)CC1 | inactive: -0.443%
15 | CCC12CN3CC(CC)(CN(C1)C3c1cccnc1)C2=O (stereo not given) | inactive: 29.2%
16 | CCc1ccc(CN2CCN(Cc3cc(Br)ccc3O)CC2)cc1 | inactive: -16.8%
17 | CN1c2ccc([N+](=O)[O-])cc2CC2(C(=O)NC(=O)N(c3ccccc3)C2=O)C1c1ccccc1 (stereo not given) | inactive: 9.61%
18 | Cc1ccc(-n2c(C)cc(/C=C3\C(=O)NC(=O)N(C)C3=O)c2C)cc1C | inactive: 22.3%
19 | COc1cc(C(=O)N/N=C/C23CC[C@@H](O)CC2(O)CC[C@@H]2[C@@H]3CCC3(C)C(C4=CC(=O)OC4)CCC23O)ccc1O (stereo not given in full) | inactive: 12.6%
20 | Cc1ccccc1-n1c(/C=C/c2ccccc2F)nc2ccccc2c1=O | inactive: 6.33%
21 | COc1ccc(C2N(c3cc(C)on3)C(=O)C3CCCN32)cc1 (stereo not given) | inactive: -14.6%
22 | C[C@]12CCC3C(CCC4=C/C(=N/OCC(=O)NC(CCC(=O)O)C(=O)O)CC[C@@]43C)C1CCC2O (stereo not given in full) | inactive: 10.7%
23 | Cc1cc(=O)oc2cc(OCC(=O)N3CCN(Cc4ccccc4)CC3)ccc12 | inactive: 1.76%

Row | SMILES | growth rescue (activation)
24 | O=c1c2ccccc2nc(Cc2ccccc2)n1-c1ccc(O)cc1 | inactive: -8.69%
25 | C=CCn1c(O)c(C(C)=NC2CC2)c(=O)[nH]c1=O | inactive: -19.1%
26 | Brc1cc2c(cc1CN1CCN(c3ccccc3)CC1)OCCO2 | inactive: 13.1%
27 | N#Cc1c(N2CCNCC2)nc(-c2ccco2)c2c1CCCC2 | inactive: 0.21%
28 | CN(C)C1(CNC(=O)Cc2ccccc2F)CCCCC1 | inactive: 9.31%
29 | COc1ccc(-n2c(/C=C3\C(=O)Nc4ccccc43)nc3ccccc3c2=O)cc1 | inactive: -2.5%
30 | COc1ccccc1OCC(=O)N1CCCC(N2CCN(c3ccc(F)cc3)CC2)C1 (stereo not given) | inactive: 12.4%
31 | O=C(Cn1ccc2ccccc2c1=O)NCC(=O)N1CCC2(CC1)OCCO2 | inactive: 10.1%
32 | CCOC(=O)C1(c2ccccc2)CCN(CC(=O)Nc2ccc(C)cc2)CC1 | inactive: 6.89%
33 | O=C1NC(=O)C(=Cc2ccc(N3CCOCC3)o2)C(=O)N1 | inactive: 8.94%
34 | O=c1c2ccccc2nc(-c2ccccc2)n1-c1ccc(O)cc1 | inactive: -3.34%
35 | CN(C(=O)Oc1ccc(C(=O)c2ccc(Cl)cc2)cc1)c1ccccc1 | inactive: 12.9%
36 | CCc1ccc(CN2CCN(C(=O)Cc3ccccc3)CC2)cc1 | inactive: 4.63%
37 | O=C1NC(=O)C(=Cc2ccc(N3CCOCC3)cc2)C(=O)N1 | inactive: 6.16%
38 | Cc1ccsc1C(=O)C1CCCN(Cc2cccc(OCCO)c2)C1 (stereo not given) | inactive: 10.2%
39 | N#CC1=C(N)Oc2cc(O)ccc2C1c1ccc2c(c1)OCO2 (stereo not given) | inactive: -15.1%
40 | C[C@]12C[C@@H](O)[C@H](O)CC1=CCC1C2CC[C@]2(C)C(=O)CCC12 (stereo not given in full) | inactive: 31.8%
41 | N#Cc1ccccc1OCC(=O)N1CCN(CC(=O)Nc2ccc(F)cc2)CC1 | inactive: 18.2%
42 | CN(C)c1ccc(/C=C/[N+](=O)[O-])cc1 | inactive: -4.59%
43 | COc1ccc(CNCCc2c[nH]c3ccccc23)c(OC)c1OC | inactive: 7.63%
44 | O=C(c1cccc2ccccc12)C1CCCN(Cc2ccon2)C1 (stereo not given) | inactive: 17.2%
45 | O=C(Nc1cccc(OC(=O)N2CCCCC2)c1)N1CCCCC1 | inactive: 2.44%
